Our source for the cell count values is the supplement of paper PMC4604168 (melanoma cell lines).

Some test systems named below: A101D; A2058; A375.
Holding throughout (experiment): cell count relative to DMSO control; melanoma cells; higher = more viable cells
Conditions in all cases: library dose: standard library concentration; 72 h

Some of the results follow. Repeats are few or missing, and single values can be far off.
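Also: cells treated in 1,536-well plates, then fixed and DAPI-stained, with nuclei counted from automated high-throughput microscope images.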

As to `CCCCCCCCc1ccc(CCC(N)(CO)CO)cc1` [fingolimod] + O=C(O)c1ccc(-c2c[nH]c3ncc(-c4ccccc4)cc23)cc1C1CCCC1 [GSK650394] (first compound 10 µM, partner dose 0.8 µM), the figures for the cell count with A101D, with A2058 and in the test on A375 were 3.59%, 3.9% and 34.5%, respectively.

`CCCCCCCCc1ccc(CCC(N)(CO)CO)cc1` [fingolimod] + Cc1nc(Nc2ncc(C(=O)Nc3c(C)cccc3Cl)s2)cc(N2CCN(CCO)CC2)n1 [dasatanib] (first compound 10 µM, partner dose 0.02 µM): the cell count in the test on A101D is 7.87%; with A2058, 6.25%; in the test with A375, 96.2%.

On to `Cc1ccc(NC(=O)c2cccc(N(C)C)c2)cc1NC(=O)c1ccc(O)cc1` + Cn1cncc1[C@@](N)(c1ccc(Cl)cc1)c1ccc2c(c1)c(-c1cccc(Cl)c1)cc(=O)n2C [tipifarnib] (first compound 10 µM, partner dose 0.05 µM), for which the cell count with A101D amounted to 79.7%; with A2058 it was 92.4%; in the test with A375 it was 101%.

On to `Cc1ccc(NC(=O)c2cccc(N(C)C)c2)cc1NC(=O)c1ccc(O)cc1` + CN(C)S(=O)(=O)c1ccc2c(c1)/C(=C/c1cc3c([nH]1)CCCC3)C(=O)N2 [SU6656] (first compound 10 µM, partner dose 2 µM), for which the cell count came to 61.5% in the test with A101D, 89.7% in the test with A2058 and 129% in the test with A375.

Regarding `NC(=O)c1ccc(N(C(N)=O)c2c(F)cccc2F)nc1-c1ccc(F)cc1F` + Cc1ccc(NC(=O)c2cccc(N(C)C)c2)cc1NC(=O)c1ccc(O)cc1 [ZM336372] (first compound 2 µM, partner dose 10 µM), the cell count with A101D came out at 82.5%; in the test with A2058 it was 83.1%; in the test with A375, 87.4%.

On to `Cc1ccc(NC(=O)c2cccc(N(C)C)c2)cc1NC(=O)c1ccc(O)cc1` + Oc1nc(-c2ccc(C(F)(F)F)cc2)nc2c1CSCC2 [XAV939] (first compound 10 µM, partner dose 10 µM), for which the cell count came to 99.4% in the test on A101D, 93.6% in the test with A2058 and 110% in the test on A375.

`CCCCCCCCc1ccc(CCC(N)(CO)CO)cc1` [fingolimod] + O=C(Nc1cccc(Cl)c1)Nc1ncc(CCNc2ncnc3ccsc23)s1 [SNS314] (first compound 10 µM, partner dose 0.004 µM): the results for the cell count with A101D, with A2058 and with A375 were 6.72%, 4.58% and 63.7%, respectively.

Consider `NC(=O)c1ccc(N(C(N)=O)c2c(F)cccc2F)nc1-c1ccc(F)cc1F` + C#Cc1cccc(Nc2ncnc3cc(OCCOC)c(OCCOC)cc23)c1 [erlotinib] (first compound 2 µM, partner dose 4 µM), for which the cell count with A101D was determined as 72.9%; with A2058 it was 66.7%; in the test on A375, 116%.

Turning to `CCCCCCCCc1ccc(CCC(N)(CO)CO)cc1` [fingolimod] + CO[C@@H]1[C@H](N(C)C(=O)c2ccccc2)C[C@H]2O[C@]1(C)n1c3ccccc3c3c4c(c5c6ccccc6n2c5c31)C(=O)NC4 [Midostaurin] (first compound 10 µM, partner dose 0.4 µM), the values for the cell count with A101D, with A2058 and with A375 were 3.07%, 3.05% and 41.1%, respectively.

`NC(=O)c1ccc(N(C(N)=O)c2c(F)cccc2F)nc1-c1ccc(F)cc1F` + Nc1ccn([C@@H]2O[C@H](CO)[C@@H](O)C2(F)F)c(=O)n1 [gemcitabine] (first compound 2 µM, partner dose 0.002 µM): the cell count with A101D worked out at 68.1%; in the test on A2058 it was 58.7%; with A375, 108%.

Turning to `CC(C)(C)c1cnc(CSc2cnc(NC(=O)C3CCNCC3)s2)o1` + OCCn1cc(-c2cnc3nnn(Cc4ccc5ncccc5c4)c3n2)cn1 [PF04217903] (first compound 0.05 µM, partner dose 5 µM), the cell count with A101D was 77%; with A2058, 79%; with A375, 93.8%.

In the case of `CCCCCCCCc1ccc(CCC(N)(CO)CO)cc1` [fingolimod] + NCC(=O)Nc1ccc(-n2nc(C(F)(F)F)cc2-c2ccc3c(ccc4ccccc43)c2)cc1 [OSU03012] (first compound 10 µM, partner dose 5 µM), the cell count was determined as 3.71% in the test with A101D, 2.08% with A2058 and 11.9% with A375.

Turning to `CCCCCCCCc1ccc(CCC(N)(CO)CO)cc1` [fingolimod] + Cn1nnc2c(C(N)=O)ncn2c1=O [temozolomide] (first compound 10 µM, partner dose 10 µM), the cell count in the test with A101D came out at 14.9%; with A2058, 10.6%; with A375, 93.4%.

For `CC(C)(C)c1cnc(CSc2cnc(NC(=O)C3CCNCC3)s2)o1` + COc1cc2ncnc(Nc3ccc(Oc4ccccc4)cc3)c2cc1OC [SrcI1] (first compound 0.05 µM, partner dose 10 µM), the cell count was found to be 34.9% in the test with A101D, 75.4% with A2058 and 115% with A375.

As for `NC(=O)c1ccc(N(C(N)=O)c2c(F)cccc2F)nc1-c1ccc(F)cc1F` + O=C(Nc1cccc(Cl)c1)Nc1ncc(CCNc2ncnc3ccsc23)s1 [SNS314] (first compound 2 µM, partner dose 0.004 µM), the cell count in the test with A101D came out at 91.5%; in the test with A2058 it was 77.7%; in the test with A375 it was 104%.

Take `CCCCCCCCc1ccc(CCC(N)(CO)CO)cc1` [fingolimod] + Nc1nc(F)nc2c1ncn2[C@@H]1O[C@H](CO)[C@@H](O)[C@@H]1O [fludarabine] (first compound 10 µM, partner dose 1 µM): the results for the cell count in the test with A101D, with A2058 and with A375 were 5.11%, 4.65% and 9.12%, respectively.

As to `NC(=O)c1ccc(N(C(N)=O)c2c(F)cccc2F)nc1-c1ccc(F)cc1F` + COc1ccc(Cl)c(Nc2nc3ccccc3nc2NS(=O)(=O)c2cccc(NC(=O)C(C)(C)N)c2)c1 [XL147] (first compound 2 µM, partner dose 4 µM), the values for the cell count in the test on A101D, with A2058 and in the test with A375 were 98.7%, 93.5% and 86.5%, respectively.

In the case of `CCCCCCCCc1ccc(CCC(N)(CO)CO)cc1` [fingolimod] + CS(=O)(=O)CCNCc1ccc(-c2ccc3ncnc(Nc4ccc(OCc5cccc(F)c5)c(Cl)c4)c3c2)o1 [lapatinib] (first compound 10 µM, partner dose 4 µM), the cell count with A101D amounted to 6.13%; in the test with A2058, 7.76%; in the test on A375, 11.4%.

Regarding `CC(C)(C)c1cnc(CSc2cnc(NC(=O)C3CCNCC3)s2)o1` + COc1cc2c(Oc3ccc4[nH]c(C)cc4c3F)ncnc2cc1OCCCN1CCCC1 [cediranib] (first compound 0.05 µM, partner dose 2 µM), the cell count in the test with A101D is 68.6%; in the test with A2058, 59.9%; in the test on A375 it was 73.4%.

With `CCCCCCCCc1ccc(CCC(N)(CO)CO)cc1` [fingolimod] + OCCn1cc(-c2cnc3nnn(Cc4ccc5ncccc5c4)c3n2)cn1 [PF04217903] (first compound 10 µM, partner dose 5 µM), the cell count in the test with A101D is 9.01%; with A2058, 5.71%; in the test with A375, 79.1%.

As to `CCCCCCCCc1ccc(CCC(N)(CO)CO)cc1` [fingolimod] + Cc1ccc(NC(=O)c2cccc(N(C)C)c2)cc1NC(=O)c1ccc(O)cc1 [ZM336372] (first compound 10 µM, partner dose 10 µM), the cell count in the test with A101D is 5.22%; with A2058 it was 2.54%; in the test with A375, 43.6%.

With `CC(C)(C)c1cnc(CSc2cnc(NC(=O)C3CCNCC3)s2)o1` + O=C(Nc1cccc(Cl)c1)Nc1ncc(CCNc2ncnc3ccsc23)s1 [SNS314] (first compound 0.05 µM, partner dose 0.004 µM), the figures for the cell count in the test with A101D, in the test with A2058 and with A375 were 90.2%, 90.3% and 96.8%, respectively.

For the compound `CCCCCCCCc1ccc(CCC(N)(CO)CO)cc1` [fingolimod] + CC(C)C[C@H](NC(=O)[C@H](Cc1ccccc1)NC(=O)c1cnccn1)B(O)O [Bortezomib] (first compound 10 µM, partner dose 0.005 µM), the cell count in the test on A101D was 6.38%; with A2058, 4.5%; in the test on A375, 47.6%.

In the case of `CCCCCCCCc1ccc(CCC(N)(CO)CO)cc1` [fingolimod] + C[C@@H]1CCN(C(=O)CC#N)C[C@@H]1N(C)c1ncnc2[nH]ccc12 [CP690550] (first compound 10 µM, partner dose 5 µM), the results for the cell count in the test on A101D, with A2058 and in the test on A375 were 2.06%, 2.49% and 30.4%, respectively.

For the compound `NC(=O)c1ccc(N(C(N)=O)c2c(F)cccc2F)nc1-c1ccc(F)cc1F` + C[C@]1(c2nc3c(C(N)=O)cccc3[nH]2)CCCN1 [Veliparib] (first compound 2 µM, partner dose 7 µM), the cell count was 84.1% in the test with A101D, 74.2% in the test with A2058 and 86.7% in the test with A375.

Regarding `NC(=O)c1ccc(N(C(N)=O)c2c(F)cccc2F)nc1-c1ccc(F)cc1F` + Nc1cccc2c1CN(C1CCC(=O)NC1=O)C2=O [lenalidomide] (first compound 2 µM, partner dose 5 µM), the cell count was found to be 120% with A101D, 96.4% with A2058 and 113% in the test on A375.

In the case of `CCCCCCCCc1ccc(CCC(N)(CO)CO)cc1` [fingolimod] + COc1cc2c(Oc3ccc4[nH]c(C)cc4c3F)ncnc2cc1OCCCN1CCCC1 [cediranib] (first compound 10 µM, partner dose 2 µM), the cell count was 1.33% in the test on A101D, 4.1% with A2058 and 46% in the test with A375.

For the compound `NC(=O)c1ccc(N(C(N)=O)c2c(F)cccc2F)nc1-c1ccc(F)cc1F` + NC1(c2ccc(-c3nc4ccn5c(=O)[nH]nc5c4cc3-c3ccccc3)cc2)CCC1 [MK2206] (first compound 2 µM, partner dose 2 µM), the cell count in the test on A101D was 85.7%; with A2058, 76%; in the test on A375 it was 98.4%.

As for `CN(NC(=O)CC(=O)NN(C)C(=S)c1ccccc1)C(=S)c1ccccc1` + COc1cc2c(Oc3ccc4[nH]c(C)cc4c3F)ncnc2cc1OCCCN1CCCC1 [cediranib] (first compound 0.03 µM, partner dose 2 µM), the cell count was determined as 64.6% with A101D, 11.9% with A2058 and 131% with A375.

Consider `NC(=O)c1ccc(N(C(N)=O)c2c(F)cccc2F)nc1-c1ccc(F)cc1F` + Cc1cc(N2CCOCC2)cc2[nH]c(-c3c(NC[C@@H](O)c4cccc(Cl)c4)cc[nH]c3=O)nc12 [BMS536924] (first compound 2 µM, partner dose 1 µM), for which the cell count amounted to 88.7% with A101D, 93.3% in the test on A2058 and 101% in the test on A375.
